# Experimental data: the supplement of paper PMC8728848
# This is one part of the list.
# Assays:
# Assay in all cases: glycan array binding signal (z-score within array); higher = stronger binding
# Conditions in all cases: glycan notation: IUPAC condensed, linker removed
# [1] = target: Gal(a1-4)GlcNAc
# Summary of the method: (§1)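 Negative Z-scores can be read as non-binding. The Z-score is calculated within each array and then averaged across arrays of one protein sequence at different concentrations or buffers and across linkers. Arrays, 3228 in all, were curated from the Consortium for Functional Glycomics database and kept only where the protein sequence was available.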
# [2] = target: Gal(a1-6)Glc
# Summary of the method: as §1
# [3] = target: Gal(b1-2)Gal
# Summary of the method: as §1
# [4] = target: Gal(b1-3)Gal
# Summary of the method: as §1
# [5] = target: Gal(b1-3)GalNAc
# Summary of the method: as §1
# [6] = target: Gal(b1-3)GalNAc(b1-3)Gal(a1-4)Gal(b1-4)Glc
# Summary of the method: as §1
# [7] = target: Gal(b1-3)GalNAc(b1-3)Gal(b1-4)Glc
# Summary of the method: as §1
# [8] = target: Gal(b1-3)GalNAc(b1-3)Gal(b1-4)GlcNAc
# Summary of the method: as §1
# [9] = target: Gal(b1-3)GalNAc(b1-4)Gal(b1-4)Glc
# Summary of the method: as §1
# [10] = target: Gal(b1-3)GalNAc(b1-4)[Neu5Ac(a2-3)]Gal(b1-4)Glc
# Summary of the method: as §1
# [11] = target: Gal(b1-3)[Fuc(a1-4)]GlcNAc
# Summary of the method: as §1
# [12] = target: Gal(b1-3)[Fuc(a1-4)]GlcNAc(b1-3)Gal(b1-4)GlcNAc
# Summary of the method: as §1
# [13] = target: Gal(b1-3)[Fuc(a1-4)]GlcNAc(b1-3)Gal(b1-4)[Fuc(a1-3)]GlcNAc
# Summary of the method: as §1
# [14] = target: Gal(b1-3)[GlcNAc(b1-6)]GalNAc
# Summary of the method: as §1
# [15] = target: Gal(b1-3)[GlcNAc(b1-6)]GlcNAc
# Summary of the method: as §1
# [16] = target: Gal(b1-3)[Neu5Ac(a2-6)]GalNAc
# Summary of the method: as §1
# [17] = target: Gal(b1-3)[Neu5Ac(a2-6)]GlcNAc
# Summary of the method: as §1
# [18] = target: Gal(b1-3)[Neu5Ac(a2-6)]GlcNAc(a1-4)Gal(b1-4)Glc
# Summary of the method: as §1
# [19] = target: Gal(b1-3)[Neu5Ac(b2-6)]GlcNAc
# Summary of the method: as §1
# [20] = target: Gal(b1-4)GalNAc(a1-3)[Fuc(a1-2)]Gal(b1-4)GlcNAc
# Summary of the method: as §1
# [21] = target: Gal(b1-4)GalNAc(b1-3)[Fuc(a1-2)]Gal(b1-4)GlcNAc
# Summary of the method: as §1
# [22] = target: Gal(b1-4)Glc
# Summary of the method: as §1
# [23] = target: Gal(b1-4)Glc6S
# Summary of the method: as §1
# [24] = target: Gal(b1-4)GlcNAc
# Summary of the method: as §1
# [25] = target: Gal(b1-4)GlcNAc(b1-2)Man(a1-3)[Gal(b1-4)GlcNAc(b1-2)Man(a1-6)]Man(b1-4)GlcNAc(b1-4)GlcNAc
# Summary of the method: as §1
# [26] = target: Gal(b1-4)GlcNAc(b1-3)Gal(b1-4)Glc
# Summary of the method: as §1
# [27] = target: Gal(b1-4)GlcNAc(b1-3)Gal(b1-4)GlcNAc
# Summary of the method: as §1
# [28] = target: Gal(b1-4)GlcNAc(b1-3)Gal(b1-4)GlcNAc(b1-3)Gal(b1-4)GlcNAc
# Summary of the method: as §1
# [29] = target: Gal(b1-4)GlcNAc(b1-3)Gal(b1-4)[Fuc(a1-3)]GlcNAc(b1-3)Gal(b1-4)[Fuc(a1-3)]GlcNAc
# Summary of the method: as §1
# [30] = target: Gal(b1-4)GlcNAc(b1-3)GalNAc
# Summary of the method: as §1
# [31] = target: Gal(b1-4)GlcNAc(b1-3)[Gal(b1-4)GlcNAc(b1-6)]GalNAc
# Summary of the method: as §1
# [32] = target: Gal(b1-4)GlcNAc(b1-6)GalNAc
# Summary of the method: as §1
# [33] = target: Gal(b1-4)GlcNAc(b1-6)[Gal(b1-3)]GalNAc
# Summary of the method: as §1
# [34] = target: Gal(b1-4)GlcNAc(b1-6)[Gal(b1-3)]GlcNAc
# Summary of the method: as §1
# [35] = target: Gal3S(b1-3)GalNAc
# Summary of the method: as §1
# [36] = target: Gal3S(b1-3)GlcNAc
# Summary of the method: as §1
# [37] = target: Gal3S(b1-3)[Fuc(a1-4)]GlcNAc
# Summary of the method: as §1
# [38] = target: Gal3S(b1-4)Glc
# Summary of the method: as §1
# [39] = target: Gal3S(b1-4)Glc6S
# Summary of the method: as §1
# [40] = target: Gal3S(b1-4)GlcNAc
# Summary of the method: as §1
# [41] = target: Gal3S(b1-4)GlcNAc6S
# Summary of the method: as §1
# [42] = target: Gal3S6S(b1-4)GlcNAc
# Summary of the method: as §1
# [43] = target: Gal3S6S(b1-4)GlcNAc6S
# Summary of the method: as §1
# [44] = target: Gal4S(b1-4)GlcNAc
# Summary of the method: as §1
# [45] = target: Gal4S6S(b1-4)GlcNAc
# Summary of the method: as §1
binder,measurement,setting,value
"HMGB1 (Homo sapiens), P09429 (protein) MGKGDPKKPRGKMSSYAFFVQTCREEHKKKHPDASVNFSEFSKKCSERWKTMSAKEKGKFEDMAKADKARYEREMKTYIPPKGETKKKFKDPNAPKRPPSAFFLFCSEYRPKIKGEHPGLSIGDVAKKLGEMWNNTAADDKQPYEKKAAKLKEKYEKDIAAYRAKGKPDAAKKGVVKAEKSKKKKEEEEDEEDEEDEEEEEDEEDEDEEEDDDDE",glycan array binding signal (z-score),[1],-0.407
same,glycan array binding signal (z-score),[2],-0.039
same,glycan array binding signal (z-score),[3],-0.365
same,glycan array binding signal (z-score),[4],-0.393
same,glycan array binding signal (z-score),[5],-0.422
same,glycan array binding signal (z-score),[6],-0.486
same,glycan array binding signal (z-score),[7],-0.445
same,glycan array binding signal (z-score),[8],-0.431
same,glycan array binding signal (z-score),[9],-0.405
same,glycan array binding signal (z-score),[10],-0.408
same,glycan array binding signal (z-score),[11],-0.382
same,glycan array binding signal (z-score),[12],-0.101
same,glycan array binding signal (z-score),[13],-0.352
same,glycan array binding signal (z-score),[14],-0.173
same,glycan array binding signal (z-score),[15],-0.485
same,glycan array binding signal (z-score),[16],0.022
same,glycan array binding signal (z-score),[17],-0.354
same,glycan array binding signal (z-score),[18],0.029
same,glycan array binding signal (z-score),[19],-0.3
same,glycan array binding signal (z-score),[20],-0.337
same,glycan array binding signal (z-score),[21],-0.422
same,glycan array binding signal (z-score),[22],-0.299
same,glycan array binding signal (z-score),[23],-0.223
same,glycan array binding signal (z-score),[24],-0.404
same,glycan array binding signal (z-score),[25],-0.471
same,glycan array binding signal (z-score),[26],-0.227
same,glycan array binding signal (z-score),[27],-0.389
same,glycan array binding signal (z-score),[28],-0.304
same,glycan array binding signal (z-score),[29],-0.364
same,glycan array binding signal (z-score),[30],-0.452
same,glycan array binding signal (z-score),[31],-0.184
same,glycan array binding signal (z-score),[32],0.008
same,glycan array binding signal (z-score),[33],0.127
same,glycan array binding signal (z-score),[34],-0.411
same,glycan array binding signal (z-score),[35],-0.297
same,glycan array binding signal (z-score),[36],-0.166
same,glycan array binding signal (z-score),[37],-0.33
same,glycan array binding signal (z-score),[38],-0.351
same,glycan array binding signal (z-score),[39],1.7
same,glycan array binding signal (z-score),[40],0.093
same,glycan array binding signal (z-score),[41],3.64
same,glycan array binding signal (z-score),[42],3.32
same,glycan array binding signal (z-score),[43],4.75
same,glycan array binding signal (z-score),[44],0.127
same,glycan array binding signal (z-score),[45],3.25
